# Laboratory results: patent publication US20250163048A1 (Tango Therapeutics, Inc., priority 2022, published 2025)
# What was measured:
# [1] = system: HAP1 MTAP-intact cell line; test: SDMA in-cell western assay, HAP1 MTAP-intact; settings: Homo sapiens, HAP1, read-out: Hap1 MTAP intact IC50, SDMA in-cell western, HAP1 MTAP-intact cell line
# MTAP-deleted cell line = test: viability assay for the MTAP-deleted cell line; type: cell-based; settings: Homo sapiens, HAP1, viability assay
# [2] = system: HAP1 MTAP-deleted cell line; test: SDMA in-cell western assay, HAP1 MTAP-deleted; settings: for IC50 / IC90: Homo sapiens; for IC50: HAP1, read-out: Hap1 MTAP deleted IC50, SDMA in-cell western, HAP1 MTAP-deleted cell line; for IC90: HAP1, read-out: Hap1 MTAP deleted IC90, SDMA in-cell western, HAP1 MTAP-deleted cell line; for Hap1 MTAP intact/deleted ratio: IC50 ratio between HAP1 MTAP-intact and HAP1 MTAP-deleted cell line, SDMA in-cell western
IC50 [1] [nM],IC50 [2] [nM],IC90 [2] [nM],Compound,IC50 (MTAP-deleted cell line) [nM],Hap1 MTAP intact/deleted ratio [2]
> 50,5 to 50,75 to 125,"C[C@H]1CC[C@H](c2ccc3sc(C4CCN(C5CC5)CC4)nc3c2)N(C(=O)C(=O)Nc2cnc3c(c2)C(=O)NCC3)C1 [Compound 4, 2-((2R,5S)-2-(2-(1-cyclopropylpiperidin-4-yl)benzo[d]thiazol-5-yl)-5-methylpiperidin-1-yl)-2-oxo-N-(5-oxo-5,6,7,8-tetrahydro-1,6-naphthyridin-3-yl)acetamide]",100 to 1000,C (“C” indicates an IC50 ratio of less than 15 fold)
5 to 50,< 5,< 75,"C[C@H]1CC[C@H](c2ccc3sc(CCN(C)C)nc3c2)N(C(=O)C(=O)Nc2cncc3cn[nH]c23)C1 [Compound 5, 2-((2R,5S)-2-(2-(2-(dimethylamino)ethyl)benzo[d]thiazol-5-yl)-5-methylpiperidin-1-yl)-2-oxo-N-(1H-pyrazolo[4,3-c]pyridin-7-yl)acetamide]",< 100,B (“B” indicates an IC50 ratio greater than or equal to 15 fold but lower than 30 fold)
5 to 50,5 to 50,< 75,"C[C@H]1CC[C@H](c2ccc3sc(C4CCNCC4)nc3c2)N(C(=O)C(=O)Nc2cncc3cn[nH]c23)C1 [Compound 6, 2-oxo-N-(1H-pyrazolo[4,3-c]pyridin-7-yl)-2-[(5S)-5-methyl-2-[2-(4-piperidyl)-1,3-benzothiazol-5-yl]-1-piperidyl]acetamide]",< 100,C (“C” indicates an IC50 ratio of less than 15 fold)
> 50,< 5,75 to 125,"C[C@H]1CC[C@H](c2ccc3nn(C4CCN(C)CC4)cc3c2)N(C(=O)C(=O)Nc2ccn3ccnc3c2)C1 [Compound 15, N-imidazo[1,2-a]pyridin-7-yl-2-oxo-2-[(2R,5S)-5-methyl-2-[2-(1-methyl-4-piperidyl)indazol-5-yl]-1-piperidyl]acetamide]",< 100,A (“A” indicates an IC50 ratio greater than or equal to 30 fold)
5 to 50,< 5,< 75,"C[C@H]1CC[C@H](c2ccc3sc([C@H](C)CN4CCCC4)nc3c2)N(C(=O)C(=O)Nc2cncc3cn[nH]c23)C1 [Compound 28, 2-oxo-N-(1H-pyrazolo[4,3-c]pyridin-7-yl)-2-[(2R,5S)-5-methyl-2-[2-[(1R)-1-methyl-2-pyrrolidin-1-yl-ethyl]-1,3-benzothiazol-5-yl]-1-piperidyl]acetamide]",< 100,C (“C” indicates an IC50 ratio of less than 15 fold)
> 50,5 to 50,75 to 125,"C[C@H]1CC[C@H](c2ccc3sc(CN(C)C)nc3c2)N(C(=O)C(=O)Nc2cncc3cn[nH]c23)C1 [Compound 29, 2-((2R,5S)-2-(2-((dimethylamino)methyl)benzo[d]thiazol-5-yl)-5-methylpiperidin-1-yl)-2-oxo-N-(1H-pyrazolo[4,3-c]pyridin-7-yl)acetamide]",100 to 1000,B (“B” indicates an IC50 ratio greater than or equal to 15 fold but lower than 30 fold)
< 5,< 5,< 75,"CC1CN(C)CCC1c1nc2cc([C@H]3CC[C@H](C)CN3C(=O)C(=O)Nc3cnc(N)c4cn[nH]c34)ccc2s1 (stereo partly drawn) [Compound 31, N-(4-amino-1H-pyrazolo[4,3-c]pyridin-7-yl)-2-((2R,5S)-2-(2-(1,3-dimethylpiperidin-4-yl)benzo[d]thiazol-5-yl)-5-methylpiperidin-1-yl)-2-oxoacetamide]",< 100,C (“C” indicates an IC50 ratio of less than 15 fold)
> 50,< 5,75 to 125,"CC(CN1CCCC1)c1nc2cc([C@H]3CC[C@H](C)CN3C(=O)C(=O)Nc3ccn4ccnc4c3)ccc2s1 (stereo partly drawn) [Compound 32, N-(imidazo[1,2-a]pyridin-7-yl)-2-((2R,5S)-5-methyl-2-(2-(1-(pyrrolidin-1-yl)propan-2-yl)benzo[d]thiazol-5-yl)piperidin-1-yl)-2-oxoacetamide]",< 100,A (“A” indicates an IC50 ratio greater than or equal to 30 fold)
5 to 50,< 5,< 75,"C[C@H]1CC[C@H](c2ccc3sc(C4CCCN(C)C4)nc3c2)N(C(=O)C(=O)Nc2ccn3ccnc3c2)C1 (stereo partly drawn) [Compound 33, N-(imidazo[1,2-a]pyridin-7-yl)-2-((2R,5S)-5-methyl-2-(2-(1-methylpiperidin-3-yl)benzo[d]thiazol-5-yl)piperidin-1-yl)-2-oxoacetamide]",< 100,C (“C” indicates an IC50 ratio of less than 15 fold)
> 50,5 to 50,–,"Cc1cnc2cc(NC(=O)C(=O)N3C[C@@H](C)CC[C@@H]3c3ccc4sc(CCN(C)C)nc4c3)ccn12 [Compound 34, 2-((2R,5S)-2-(2-(2-(dimethylamino)ethyl)benzo[d]thiazol-5-yl)-5-methylpiperidin-1-yl)-N-(3-methylimidazo[1,2-a]pyridin-7-yl)-2-oxoacetamide]",< 100,A (“A” indicates an IC50 ratio greater than or equal to 30 fold)
5 to 50,< 5,< 75,"CC(CN(C)C)c1nc2cc([C@H]3CC[C@H](C)CN3C(=O)C(=O)Nc3cnc(N)c4cn[nH]c34)ccc2s1 (stereo partly drawn) [Compound 35, N-(4-amino-1H-pyrazolo[4,3-c]pyridin-7-yl)-2-((2R,5S)-2-(2-(1-(dimethylamino)propan-2-yl)benzo[d]thiazol-5-yl)-5-methylpiperidin-1-yl)-2-oxoacetamide]",< 100,C (“C” indicates an IC50 ratio of less than 15 fold)
> 50,< 5,< 75,"C[C@H]1CC[C@H](c2ccc3sc(C4CC5(C4)CN(C)C5)nc3c2)N(C(=O)C(=O)Nc2ccn3ccnc3c2)C1 [Compound 44, N-(imidazo[1,2-a]pyridin-7-yl)-2-((2R,5S)-5-methyl-2-(2-(2-methyl-2-azaspiro[3.3]heptan-6-yl)benzo[d]thiazol-5-yl)piperidin-1-yl)-2-oxoacetamide]",< 100,B (“B” indicates an IC50 ratio greater than or equal to 15 fold but lower than 30 fold)
> 50,5 to 50,> 125,"C[C@H]1CC[C@H](c2ccc(NC(=O)CCN(C)C)cc2)N(C(=O)C(=O)Nc2ccn3ccnc3c2)C1 [Compound 52, 3-(Dimethylamino)-N-[4-[(2R,5S)-1-[2-(imidazo[1,2-a]pyridin-7-ylamino)-2-oxo-acetyl]-5-methyl-2-piperidyl]phenyl]propanamide]",100 to 1000,B (“B” indicates an IC50 ratio greater than or equal to 15 fold but lower than 30 fold)
> 50,5 to 50,> 125,"C[C@H]1CC[C@H](c2ccc3sc(C4CN(C)C4)nc3c2)N(C(=O)C(=O)Nc2cncc3c(N)nccc23)C1 [Compound 53, N-(8-amino-2,7-naphthyridin-4-yl)-2-((2R,5S)-5-methyl-2-(2-(1-methylazetidin-3-yl)benzo[d]thiazol-5-yl)piperidin-1-yl)-2-oxoacetamide]",< 100,A (“A” indicates an IC50 ratio greater than or equal to 30 fold)
5 to 50,< 5,< 75,"C[C@H]1CC[C@H](c2ccc3sc(C4CCN(C)CC4)nc3c2)N(C(=O)C(=O)Nc2cnc3c(c2)C(=O)NCC3)C1 [Compound 55, 2-((2R,5S)-5-methyl-2-(2-(1-methylpiperidin-4-yl)benzo[d]thiazol-5-yl)piperidin-1-yl)-2-oxo-N-(5-oxo-5,6,7,8-tetrahydro-1,6-naphthyridin-3-yl)acetamide]",< 100,C (“C” indicates an IC50 ratio of less than 15 fold)
5 to 50,< 5,< 75,"C[C@H]1CC[C@H](c2ccc3sc(C45CCN(CC4)C5)nc3c2)N(C(=O)C(=O)Nc2cncc3cn[nH]c23)C1 [Compound 57, 2-((2R,5S)-2-(2-(1-azabicyclo[2.2.1]heptan-4-yl)benzo[d]thiazol-5-yl)-5-methylpiperidin-1-yl)-2-oxo-N-(1H-pyrazolo[4,3-c]pyridin-7-yl)acetamide]",< 100,C (“C” indicates an IC50 ratio of less than 15 fold)
> 50,< 5,< 75,"C[C@H]1CC[C@H](c2ccc3sc(CCN4CCCC4)nc3c2)N(C(=O)C(=O)Nc2cncc3cn[nH]c23)C1 [Compound 63, 2-((2R,5S)-5-methyl-2-(2-(2-(pyrrolidin-1-yl)ethyl)benzo[d]thiazol-5-yl)piperidin-1-yl)-2-oxo-N-(1H-pyrazolo[4,3-c]pyridin-7-yl)acetamide]",< 100,A (“A” indicates an IC50 ratio greater than or equal to 30 fold)
5 to 50,5 to 50,< 75,"C[C@H]1CC[C@H](c2ccc3ccc(C4CCN(C)CC4)nc3c2)N(C(=O)C(=O)Nc2cnc(N)c3cn[nH]c23)C1 [Compound 65, N-(4-amino-1H-pyrazolo[4,3-c]pyridin-7-yl)-2-((2R,5S)-5-methyl-2-(2-(1-methylpiperidin-4-yl)quinolin-7-yl)piperidin-1-yl)-2-oxoacetamide]",< 100,C (“C” indicates an IC50 ratio of less than 15 fold)
